# Results published in PubChem BioAssay AID686979 (National Center for Advancing Translational Sciences (NCATS), 2013).
# Where “and” joins values, the source holds several entries; their conditions need not be identical. Equal entries are not always repeated. Screen size: about 420,000 compounds; about 50,000 (12%) were called active. The shares of active, inactive and inconclusive entries below differ from those in the screen. Calls follow the shape of the dose curve; as a rule, active = well fitted inhibition curve with a large enough effect; inconclusive = small, poorly fitted or top-dose-only effect; inactive = flat fitted curve, though single readings scatter. A potency beside an inconclusive call is a rough fit, not a confirmed value.
# Assay: qHTS for Inhibitors of human tyrosyl-DNA phosphodiesterase 1 (TDP1): qHTS in cells in presence of CPT; also: nearly all actives have a fitted effect of over 55% in size
# Conditions: chicken DT40 Tdp1-/-;hTDP1 cells + 20 nM CPT, ATP luminescence, 48 h; activity change, negative = growth inhibition: at 46.2 µM (top of the series) unless noted
# Summary of the method: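 Chicken DT40 Tdp1-/- cells complemented with human TDP1, 400 cells/well, exposed to compounds plus 20 nM camptothecin for at least 48 h at 37 C; viability read as ATP content by CellTiter-Glo luminescence.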
# % is scaled to controls: 0 for no effect and ±100 for the full control effect; potency is read from the fitted curve at half-maximal effect; tags tell the direction and shape of the fitted curve.
Compound,Potency,"activity change, negative = growth inhibition"
O=C(CSc1nc2ccccc2c(=O)[nH]1)N1CCOCC1,"inconclusive: 7.31 µM [inhibitor, partial curve]",–
N#CCCn1cc(/C=N/NC(N)=S)c(-c2ccc(Br)cc2)n1,"inconclusive: 23.1 µM [inhibitor, single point]",–
N=C1CCC(=N)c2c1c(O)c1ccccc1c2O,"inconclusive: 10.3 µM [inhibitor, partial curve]",–
O=C(/C(=C/c1cccc(Cl)c1)c1nc2ccccc2[nH]1)c1ccccc1,active: 16.4 µM,–
COC(=O)Cn1c(CN(C)Cc2ccccc2)nc2c1c(=O)n(C)c(=O)n2C,"inconclusive: 9.2 µM [inhibitor, partial curve]",–
CCCCCCn1c(=O)c(C(=O)N/N=C/c2cccc(F)c2)c(O)c2ccccc21,active: 0.92 µM,–
Cc1nn(CC(=O)NCc2ccc(N(C)C)cc2)c(=O)c2nn(-c3ccccc3)c(C)c12,–,inconclusive: -34.7% [inhibitor]
COc1ccc(C(CC(=O)Nc2ccc(Br)cn2)N2Cc3ccccc3C2=O)cc1 (stereo not given),active: 5.17 µM,–
CN(C)CCOCCOc1ccc(Cl)c2ccccc12,"inconclusive: 16.4 µM [inhibitor, single point]",–
CC(=O)Nc1ccc(OC(=O)Oc2ccc(NC(C)=O)cc2)cc1,"inconclusive: 29.1 µM [inhibitor, single point]",–
COc1cc(NC(=O)CSc2nc(=O)n(CCCN3CCOCC3)c3c2CCC3)cc(OC)c1,"inconclusive: 16.4 µM [inhibitor, single point]",–
COCCCNC(=O)c1ccc(Cn2c(=O)c3cccn3c3cccnc32)cc1,"inconclusive: 23.1 µM [inhibitor, single point]",–
CCc1ccccc1-n1nnnc1-c1cnccc1C(F)(F)F,"inconclusive: 4.11 µM [inhibitor, full curve, poor fit]",–
Cc1ccc(Cn2c(CN3CCN(c4cccc(Cl)c4)CC3)nc3c2c(=O)n(C)c(=O)n3C)cc1,active: 18.4 µM,–
COc1ccccc1N(CC(=O)NCCC1=CCCCC1)S(=O)(=O)c1ccccc1,"inconclusive: 29.1 µM [inhibitor, single point]",–
O=C(c1cccc(S(=O)(=O)N2CCN(c3ccc(F)cc3)CC2)c1)N1CCN(c2ccccc2O)CC1,"inconclusive: 29.1 µM [inhibitor, single point]",–
CCCC1S/C(=N/N=C/c2ccco2)NC1=O (stereo not given),inactive,–
CCNc1nc(-c2cc(C)n(Cc3ccco3)c2C)cs1,"inconclusive: 29.1 µM [inhibitor, single point]",–
Cc1ccc(S(=O)(=O)NC2c3cccc4cccc(c34)C2Sc2n[nH]c(N)n2)cc1 (stereo not given),active: 20.6 µM,–
COc1ccc2c(c1)CCc1cnc(N)nc1-2,"inconclusive: 16.4 µM [inhibitor, partial curve]",–
O=[N+]([O-])c1ccc(O)c(-c2ccnc3cc(-c4ccccc4)nn23)c1,"inconclusive: 29.1 µM [inhibitor, single point]",–
CCOc1ccccc1NC(=O)N1CCC(c2nc3ccccc3[nH]2)CC1,"inconclusive: 23.1 µM [inhibitor, single point]",–
COc1ccccc1CCNC(=O)C1CCN(c2nnc(C)c3c(C)n(-c4ccc(C)cc4)nc23)CC1,active: 5.8 µM and active: 4.61 µM,–
O=C(N[C@H]1CCC(=O)N([C@H](CSc2ccccc2)Cc2ccccc2)CC1)OCc1ccccc1,"inconclusive: 22.4 µM [inhibitor, single point] and inconclusive: 29.1 µM [inhibitor, single point]",–

Compound,Potency,"activity change, negative = growth inhibition"
C/C(=N\NC(=O)CN(c1ccccc1)S(C)(=O)=O)c1ccccc1O,"inconclusive: 23.1 µM [inhibitor, single point]",–
COc1ccc(CCNC(=O)C(=O)NCCOc2ccccc2Cl)cc1OC,"inconclusive: 14.6 µM [inhibitor, single point]",–
COc1ccccc1C=NN1C(=O)CSC1=S,"inconclusive: 29.1 µM [inhibitor, single point]",–
COc1cc(OC)cc(C2=Cc3ccccc3C(CC(C)=O)N2c2ccc(-c3cccs3)cc2)c1 (stereo not given),"inconclusive: 29.1 µM [inhibitor, single point]",–
COc1ccc(CNC(=O)C2CCCN2S(=O)(=O)c2ccccc2)cc1 (stereo not given),"inconclusive: 32.6 µM [inhibitor, single point]",–
CCCCN(C)C(=O)c1nc2ccccn2c1CN1CCN(C/C=C/c2ccccc2)CC1,"inconclusive: 29.1 µM [inhibitor, single point]",–
Cc1ccn2c(C(=O)CSc3ccccc3)c(C)nc2c1,active: 8.2 µM,–
COc1ccccc1N1CCN(S(=O)(=O)CCNC(=O)c2cccc(F)c2)CC1,"inconclusive: 7.31 µM [inhibitor, single point]",–
Cc1cccc(C)c1NC(=O)N1CC=C(n2c(=O)[nH]c3ccccc32)CC1,active: 14.6 µM,–
O=C(Nc1nnc(S(=O)(=O)N2CCCCCC2)s1)c1ccc(Cl)cc1,inactive,–
COc1ccc([C@H]2CC(=O)C=C(c3ccc(-c4ccccc4)c(F)c3)C2)cc1,inactive,–
CCOc1ccc(C(=O)C2CCN(C(=O)c3ccccc3C(=O)O)CC2)cc1,inactive,–
COc1ccc(NC(=O)C2Cc3c(-c4ccco4)ccnc3O2)cc1OC (stereo not given),active: 23.1 µM,–
CN=c1nc(-c2ccccc2)n(-c2ccccc2)s1,active: 4.47 µM and active: 4.61 µM,–
CSc1nn(CC(=O)Nc2cc(C)ccc2C)c(N)c1S(=O)(=O)c1ccccc1,"inconclusive: 5.17 µM [inhibitor, full curve]",–
Cn1c(=O)c2c(nc(SCc3cccnc3)n2Cc2ccc(F)cc2)n(C)c1=O,active: 20.6 µM,–
COc1ccc(Cl)cc1NC(=O)CSc1nnc(Cc2cccn2C)n1-c1ccc(F)cc1,active: 25.9 µM,–
Cc1cc(C)n(CCNC(=O)c2cc(COc3ccc(F)cc3Cl)on2)n1,"inconclusive: 29.1 µM [inhibitor, single point]",–
CC1CCc2nc(NC(=O)CN3CCN(c4ccccc4)CC3)sc2C1 (stereo not given),"inconclusive: 29.1 µM [inhibitor, single point]",–
COc1ccc(CCNC(=O)CNC(=O)N2CC(=O)Nc3ccccc32)cc1OC,inactive,–
CC(C)CC(=O)OCc1cc(=O)n2nc(C3CCCCC3)sc2n1,inactive,–
Cn1cccc1Cc1nnc(SCC(=O)NC2CCCC2)n1-c1ccc(F)cc1,"inconclusive: 11.6 µM [inhibitor, partial curve]",–
CCCOc1ccc(C2CC(=O)Nc3cc(OC)c(OC)cc32)cc1 (stereo not given),"inconclusive: 29.1 µM [inhibitor, single point]",–
Nc1nc(SCC(=O)Nc2ccc(Oc3ccccc3)cc2)n[nH]1,inactive,–

Compound,Potency,"activity change, negative = growth inhibition"
Cc1ccc(-n2c(N)cc(=O)nc2SCC(=O)NC2CCCCC2)cc1C,inactive,–
CCOC(=O)N1CCC(NC(=O)CN2C(=O)CCSc3ccccc32)CC1,inactive,–
COc1ccccc1CNC(=O)C1CCN(c2nnc(C)c3c(C)n(-c4ccccc4)nc23)CC1,inactive,–
Cn1cccc1-c1cc(C(=O)N/N=C/C=C/c2ccccc2)[nH]n1,–,inconclusive: -31.8% [inhibitor]
Cc1nn(-c2ccc(F)cc2)c2sc(C(=O)OCC(=O)N3CCC(C)CC3)cc12,"inconclusive: 29.1 µM [inhibitor, single point]",–
CC1(NC(=O)Cn2cc(C(F)(F)F)ccc2=O)CCS(=O)(=O)C1 (stereo not given),inactive,–
Cc1cc(C)c2sc(N(CCCN(C)C)C(=O)c3ccc(S(=O)(=O)N(C)Cc4ccccc4)cc3)nc2c1,"inconclusive: 20.6 µM [inhibitor, single point]",–
Nc1c2c(nc3ccccc13)CSCC2,inactive,–
Clc1ccccc1C1CC(c2ccccc2)=Nc2ccccc2N1 (stereo not given),"inconclusive: 29.1 µM [inhibitor, single point]",–
Cc1cc(C(=O)O)ccc1-c1ccc(/C=C2\NC(=O)N(Cc3ccccc3Cl)C2=O)o1,inactive,–
O=c1ccc(/C=C/c2ccccc2)nn1Cc1ccccc1,inactive,–
Cc1cccc(C)c1OC(=O)CSc1nnc(-c2ccc3c(c2)OCO3)o1,inactive,–
COc1ccc(CNC(=O)[C@H](CCSC)NC(=O)N2CCn3c2nc2ccccc23)cc1,"inconclusive: 25.9 µM [inhibitor, single point]",–
COc1cccc(CNc2nc3cc(-c4ccc(OC)cc4C)sc3c(=O)n2C)c1,"inconclusive: 29.1 µM [inhibitor, partial curve, poor fit]",–
COc1cc(CN(C)CCc2ccccc2)ccc1OCc1ccccc1,"inconclusive: 29.1 µM [inhibitor, single point]",–
COc1ccccc1OCC(=O)Nc1ccc(S(=O)(=O)N2CCCC2)cc1,"inconclusive: 7.31 µM [inhibitor, partial curve, poor fit]",–
O=C(c1cccc(C(=O)N2CCN(c3ccccc3)CC2)c1)N1CCN(c2ccccc2)CC1,"inconclusive: 29.1 µM [inhibitor, single point]",–
Cc1ccc(N(C(C)C(=O)Nc2cc(Cl)ccc2Oc2ccccc2)S(C)(=O)=O)cc1 (stereo not given),"inconclusive: 23.1 µM [inhibitor, single point]",–
Cn1c(N)c(S(=O)(=O)NCc2ccccc2Cl)c(=O)n(C)c1=O,inactive,–
Cc1ccc(S(=O)(=O)N(C)C[C@H]2Oc3ccc(NC(=O)C4CCCCC4)cc3C(=O)N([C@H](C)CO)C[C@H]2C)cc1,active: 25.9 µM,–
Cc1cnc(NC(=O)Cc2ccc(C)c(C)c2)s1,inactive,–
CCC(=NN=C(CC)c1ccccc1O)c1ccccc1O,"inconclusive: 29.1 µM [inhibitor, single point]",–
